Target: Recombinant heterodimeric HCV NS3/NS4A protease (strain 1a) (Hepatitis C virus genotype 1a, UniProt P27958)
Test: Spectrophotometric assay for HCV serine protease inhibitory activity (chromogenic ester substrates)
Format: biochemical
Conditions: Table 3A; class symbols; read-out: Ki* Range

Structure (SMILES)	Ki [nM]
CCCC[C@H](NC(=O)[C@@H]1[C@@H]2[C@H](CN1C(=O)[C@@H](NC(=O)NC1(CS(=O)(=O)C3(C)CCOCC3)CCCCC1)C(C)(C)C)C2(C)C)C(=O)C(=O)NCC [Compound 883-cg]	< 75
CNC(=O)C(=O)[C@H](CC1CC1)NC(=O)[C@@H]1[C@@H]2[C@H](CN1C(=O)[C@@H](NC(=O)NC1(CS(=O)(=O)C(C)(C)C)CCCCC1)C(C)(C)C)C2(C)C [Compound 883-ch]	< 75
CNC(=O)C(=O)[C@H](CC1CC1)NC(=O)[C@@H]1[C@@H]2[C@H](CN1C(=O)[C@@H](NC(=O)NC1(CS(=O)(=O)C(C)(C)C)CCCCC1)C1(C)CCCCC1)C2(C)C [Compound 883-ci]	< 75
CCCC[C@H](NC(=O)[C@@H]1[C@@H]2[C@H](CN1C(=O)[C@@H](NC(=O)NC1([C@H]3CCCS3(=O)=O)CCCCC1)C(C)(C)C)C2(C)C)C(=O)C(=O)NCC [Compound 883-ck]	< 75
CCCC[C@H](NC(=O)[C@@H]1[C@@H]2[C@H](CN1C(=O)[C@@H](NC(=O)NC1([C@@H]3CCCS3(=O)=O)CCCCC1)C(C)(C)C)C2(C)C)C(=O)C(=O)NCC [Compound 883-cl]	< 75
CCCC[C@H](NC(=O)[C@@H]1[C@@H]2[C@H](CN1C(=O)[C@@H](NC(=O)NC1(C3OCCCS3(=O)=O)CCCCC1)C(C)(C)C)C2(C)C)C(=O)C(=O)NCCC (some centres unmarked) [Compound 883-cm]	< 75
CCCC[C@H](NC(=O)[C@@H]1[C@@H]2[C@H](CN1C(=O)[C@@H](NC(=O)NC1(C3OCCCS3(=O)=O)CCCCC1)C(C)(C)C)C2(C)C)C(=O)C(=O)NCC1CC1 (some centres unmarked) [Compound 883-co]	< 75
CC1([C@H](NC(=O)NC2(CS(=O)(=O)C(C)(C)C)CCCCC2)C(=O)N2C[C@H]3[C@@H]([C@H]2C(=O)N[C@@H](CCC2CC2)C(=O)C(=O)NCC2CC2)C3(C)C)CCCCC1 [Compound 883-cs]	< 75
CCCNC(=O)C(=O)[C@H](CC1CC1)NC(=O)[C@@H]1[C@@H]2[C@H](CN1C(=O)[C@@H](NC(=O)NC1([C@H]3CCCCS3(=O)=O)CCCCC1)C(C)(C)C)C2(C)C [Compound 883-ct]	< 75
CCCNC(=O)C(=O)[C@H](CCCCF)NC(=O)[C@@H]1[C@@H]2[C@H](CN1C(=O)[C@@H](NC(=O)NC1(CS(=O)(=O)C(C)(C)C)CCCCC1)C1(C)CCCCC1)C2(C)C [Compound 883-cu]	< 75
CCCNC(=O)C(=O)[C@H](CC1CC1)NC(=O)[C@@H]1[C@@H]2[C@H](CN1C(=O)[C@@H](NC(=O)NC1(CS(=O)(=O)C3(C)CCOCC3)CCCCC1)C(C)(C)C)C2(C)C [Compound 883-cv]	< 75
CCCC[C@H](NC(=O)[C@@H]1[C@@H]2[C@H](CN1C(=O)[C@@H](NC(=O)NC1([C@H]3CCCS3(=O)=O)CCCCC1)C(C)(C)C)C2(Cl)Cl)C(=O)C(=O)NCC [Compound 883-cw]	< 75
CCCC[C@H](NC(=O)[C@@H]1[C@@H]2[C@H](CN1C(=O)[C@@H](NC(=O)NC1([C@@H]3CCCS3(=O)=O)CCCCC1)C(C)(C)C)C2(Cl)Cl)C(=O)C(=O)NCC [Compound 883-cx]	< 75
CCCNC(=O)C(=O)[C@H](CC1CC1)NC(=O)[C@@H]1[C@@H]2[C@H](CN1C(=O)[C@@H](NC(=O)NC1(C3OCCS3(=O)=O)CCCCC1)C1(C)CCCCC1)C2(C)C (some centres unmarked) [Compound 883-cy]	< 75
CCCC[C@H](NC(=O)[C@@H]1[C@@H]2[C@H](CN1C(=O)[C@@H](NC(=O)NC1(C3OCCS3(=O)=O)CCCCC1)C1(C)CCCCC1)C2(C)C)C(=O)C(=O)NCCC (some centres unmarked) [Compound 883-cz]	< 75
C=CCNC(=O)C(=O)[C@H](CCCC)NC(=O)[C@@H]1[C@@H]2[C@H](CN1C(=O)[C@@H](NC(=O)NC1(C3OCCS3(=O)=O)CCCCC1)C(C)(C)C)C2(C)C (some centres unmarked) [Compound 883-d]	< 75
CCNC(=O)C(=O)[C@H](CCC1CC1)NC(=O)[C@@H]1[C@@H]2[C@H](CN1C(=O)[C@@H](NC(=O)NC1(CS(=O)(=O)C(C)(C)CC)CCCCC1)C1(C)CCCCC1)C2(C)C [Compound 883-da]	< 75
CCCNC(=O)C(=O)[C@H](CC1CC1)NC(=O)[C@@H]1[C@@H]2[C@H](CN1C(=O)[C@@H](NC(=O)NC1(CS(=O)(=O)C(C)(C)CC)CCCCC1)C1(C)CCCCC1)C2(C)C [Compound 883-db]	< 75
CCCC[C@H](NC(=O)[C@@H]1[C@@H]2[C@H](CN1C(=O)[C@@H](NC(=O)NC1(CS(=O)(=O)C3(C)CCOCC3)CCCCC1)C(C)(C)C)C2(Cl)Cl)C(=O)C(=O)NCCC [Compound 883-dc]	< 75
CCCC[C@H](NC(=O)[C@@H]1[C@@H]2[C@H](CN1C(=O)[C@@H](NC(=O)NC1(C3OCCS3(=O)=O)CCCCC1)C(C)(C)C)C2(Cl)Cl)C(=O)C(=O)NCC (some centres unmarked) [Compound 883-de]	< 75
CCCNC(=O)C(=O)[C@H](CC1CC1)NC(=O)[C@@H]1[C@@H]2[C@H](CN1C(=O)[C@@H](NC(=O)NC1(C3OCCS3(=O)=O)CCCCC1)C(C)(C)C)C2(Cl)Cl (some centres unmarked) [Compound 883-dg]	< 75
CCCNC(=O)C(=O)[C@H](CC1CC1)NC(=O)[C@@H]1[C@@H]2[C@H](CN1C(=O)[C@@H](NC(=O)NC1(CS(=O)(=O)C3(C)CCOCC3)CCCCC1)C(C)(C)C)C2(Cl)Cl [Compound 883-di]	< 75

Structure (SMILES)	Ki [nM]
CCNC(=O)C(=O)[C@H](CCC1CC1)NC(=O)[C@@H]1[C@@H]2[C@H](CN1C(=O)[C@@H](NC(=O)NC1([C@H]3OCCS3(=O)=O)CCCCC1)C1(C)CCCCC1)C2(C)C [Compound 883-dj]	< 75
CCNC(=O)C(=O)[C@H](CCC1CC1)NC(=O)[C@@H]1[C@@H]2[C@H](CN1C(=O)[C@@H](NC(=O)NC1([C@@H]3OCCS3(=O)=O)CCCCC1)C1(C)CCCCC1)C2(C)C [Compound 883-dk]	< 75
CCCC[C@H](NC(=O)[C@@H]1[C@@H]2[C@H](CN1C(=O)[C@@H](NC(=O)NC1([C@H]3OCCS3(=O)=O)CCCCC1)C1(C)CCCCC1)C2(C)C)C(=O)C(=O)NCC [Compound 883-dl]	< 75
CCCC[C@H](NC(=O)[C@@H]1[C@@H]2[C@H](CN1C(=O)[C@@H](NC(=O)NC1([C@@H]3OCCS3(=O)=O)CCCCC1)C1(C)CCCCC1)C2(C)C)C(=O)C(=O)NCC [Compound 883-dm]	< 75
CCCC[C@H](NC(=O)[C@@H]1[C@@H]2[C@H](CN1C(=O)[C@@H](NC(=O)NC1([C@H]3CCCS3(=O)=O)CCCCC1)C1(C)CCCCC1)C2(C)C)C(=O)C(=O)NCC [Compound 883-dn]	< 75
CCCC[C@H](NC(=O)[C@@H]1[C@@H]2[C@H](CN1C(=O)[C@@H](NC(=O)NC1([C@@H]3CCCS3(=O)=O)CCCCC1)C1(C)CCCCC1)C2(C)C)C(=O)C(=O)NCC [Compound 883-do]	< 75
CCCC[C@H](NC(=O)[C@@H]1[C@@H]2[C@H](CN1C(=O)[C@@H](NC(=O)NC1([C@H]3CCCS3(=O)=O)CCCCC1)C(C)(C)C)C2(Cl)Cl)C(=O)C(=O)NCCC [Compound 883-dp]	< 75
CCCC[C@H](NC(=O)[C@@H]1[C@@H]2[C@H](CN1C(=O)[C@@H](NC(=O)NC1([C@@H]3CCCS3(=O)=O)CCCCC1)C(C)(C)C)C2(Cl)Cl)C(=O)C(=O)NCCC [Compound 883-dq]	< 75
CCCC[C@H](NC(=O)[C@@H]1[C@@H]2[C@H](CN1C(=O)[C@@H](NC(=O)NC1(CS(=O)(=O)C3(C)CCOCC3)CCCCC1)C(C)(C)C)C2(Cl)Cl)C(=O)C(=O)NC1CC1 [Compound 883-dt]	< 75
CCNC(=O)C(=O)[C@H](CCC1CC1)NC(=O)[C@@H]1[C@@H]2[C@H](CN1C(=O)[C@@H](NC(=O)NC1(CS(=O)(=O)C3(C)CCOCC3)CCCCC1)C(C)(C)C)C2(C)C [Compound 883-du]	< 75
CCCC[C@H](NC(=O)[C@@H]1[C@@H]2[C@H](CN1C(=O)[C@@H](NC(=O)NC1([C@H]3CCCS3(=O)=O)CCC(C)(C)CC1)C(C)(C)C)C2(C)C)C(=O)C(=O)NCC [Compound 883-dv]	< 75
CC1(C)CCC(NC(=O)N[C@H](C(=O)N2C[C@H]3[C@@H]([C@H]2C(=O)N[C@@H](CCC2CC2)C(=O)C(=O)NC2CC2)C3(C)C)C(C)(C)C)([C@H]2CCCS2(=O)=O)CC1 [Compound 883-dw]	< 75
CCC[C@H](NC(=O)[C@@H]1[C@@H]2[C@H](CN1C(=O)[C@@H](NC(=O)NC1([C@H]3CCCS3(=O)=O)CCC(C)(C)CC1)C(C)(C)C)C2(C)C)C(=O)C(=O)NC1CC1 [Compound 883-dx]	< 75
CCCC[C@H](NC(=O)[C@@H]1[C@@H]2[C@H](CN1C(=O)[C@@H](NC(=O)NC1(CS(=O)(=O)C3(C)CCOCC3)CCCCC1)C(C)(C)C)C2(Cl)Cl)C(=O)C(=O)NCC [Compound 883-dy]	< 75
CCNC(=O)C(=O)[C@H](CCC1CC1)NC(=O)[C@@H]1[C@@H]2[C@H](CN1C(=O)[C@@H](NC(=O)NC1(CS(=O)(=O)C3(C)CCOCC3)CCCCC1)C(C)(C)C)C2(Cl)Cl [Compound 883-dz]	< 75
C=CCNC(=O)C(=O)[C@H](CCC1CC1)NC(=O)[C@@H]1[C@@H]2[C@H](CN1C(=O)[C@@H](NC(=O)NC1([C@H]3CCCS3(=O)=O)CCCCC1)C(C)(C)C)C2(Cl)Cl [Compound 883-e]	< 75
CCCNC(=O)C(=O)[C@H](CCC)NC(=O)[C@@H]1[C@@H]2[C@H](CN1C(=O)[C@@H](NC(=O)NC1([C@H]3CCCS3(=O)=O)CCCCC1)C(C)(C)C)C2(Cl)Cl [Compound 883-ea]	< 75
CCCNC(=O)C(=O)[C@H](CCC)NC(=O)[C@@H]1[C@@H]2[C@H](CN1C(=O)[C@@H](NC(=O)NC1([C@@H]3CCCS3(=O)=O)CCCCC1)C(C)(C)C)C2(Cl)Cl [Compound 883-eb]	< 75
CCCNC(=O)C(=O)[C@H](CC1CC1)NC(=O)[C@@H]1[C@@H]2[C@H](CN1C(=O)[C@@H](NC(=O)NC1([C@H]3CCCS3(=O)=O)CCCCC1)C(C)(C)C)C2(Cl)Cl [Compound 883-ec]	< 75
CCCNC(=O)C(=O)[C@H](CC1CC1)NC(=O)[C@@H]1[C@@H]2[C@H](CN1C(=O)[C@@H](NC(=O)NC1([C@@H]3CCCS3(=O)=O)CCCCC1)C(C)(C)C)C2(Cl)Cl [Compound 883-ed]	< 75
CC(C)(C)[C@H](NC(=O)NC1(CS(=O)(=O)C(C)(C)C)CCCCC1)C(=O)N1C[C@H]2[C@@H]([C@H]1C(=O)N[C@@H](CCC1CC1)C(=O)C(=O)NCCF)C2(C)C [Compound 883-ee]	< 75
CC1([C@H](NC(=O)NC2(CS(=O)(=O)C(C)(C)C)CCCCC2)C(=O)N2C[C@H]3[C@@H]([C@H]2C(=O)N[C@@H](CCC2CC2)C(=O)C(=O)NCCF)C3(C)C)CCCCC1 [Compound 883-ef]	< 75

From patent US8067379B2, “Sulfur compounds as inhibitors of hepatitis C virus NS3 serine protease” (Schering Corporation, priority 2004, dated 2011)
